From publication PMC4559445
These are yes or no findings as the source states them, for the method shown. Some binding calls cover weakened binding; strength is not graded here. Tags and fused reporters may be left off the sequences shown. Each block holds one binder with its values, some of them ahead of it.

How the values were obtained:
[1] = biological target: T1, ScBcy1, PKA regulatory subunit of S. cerevisiae (two-hybrid fusion) (S. cerevisiae) (UniProt P07278); experiment: two-hybrid; Matchmaker GAL4 Two-Hybrid System 3; yeast AH109 co-transformed with pGBKT7 bait and pGADT7 prey; growth on SD-Ade/-His/-Leu/-Trp plates and blue colonies on alpha-X-gal; genes swapped between the vectors, positive only if positive in both
T1 sequence: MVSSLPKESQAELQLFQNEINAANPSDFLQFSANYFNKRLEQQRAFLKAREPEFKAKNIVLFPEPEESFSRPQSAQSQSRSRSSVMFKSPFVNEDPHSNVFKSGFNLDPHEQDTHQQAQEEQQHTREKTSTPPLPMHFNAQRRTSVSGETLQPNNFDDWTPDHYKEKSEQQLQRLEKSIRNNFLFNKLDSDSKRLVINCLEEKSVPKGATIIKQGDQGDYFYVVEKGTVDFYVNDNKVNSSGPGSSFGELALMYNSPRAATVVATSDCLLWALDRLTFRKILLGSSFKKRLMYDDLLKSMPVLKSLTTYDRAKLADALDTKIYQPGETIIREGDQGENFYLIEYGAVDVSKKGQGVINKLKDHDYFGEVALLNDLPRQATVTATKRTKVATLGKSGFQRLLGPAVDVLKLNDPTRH

[2] = biological target: T2, ScGpa2, G-alpha protein of S. cerevisiae (two-hybrid fusion) (S. cerevisiae) (UniProt P10823); experiment: as above
T2 sequence: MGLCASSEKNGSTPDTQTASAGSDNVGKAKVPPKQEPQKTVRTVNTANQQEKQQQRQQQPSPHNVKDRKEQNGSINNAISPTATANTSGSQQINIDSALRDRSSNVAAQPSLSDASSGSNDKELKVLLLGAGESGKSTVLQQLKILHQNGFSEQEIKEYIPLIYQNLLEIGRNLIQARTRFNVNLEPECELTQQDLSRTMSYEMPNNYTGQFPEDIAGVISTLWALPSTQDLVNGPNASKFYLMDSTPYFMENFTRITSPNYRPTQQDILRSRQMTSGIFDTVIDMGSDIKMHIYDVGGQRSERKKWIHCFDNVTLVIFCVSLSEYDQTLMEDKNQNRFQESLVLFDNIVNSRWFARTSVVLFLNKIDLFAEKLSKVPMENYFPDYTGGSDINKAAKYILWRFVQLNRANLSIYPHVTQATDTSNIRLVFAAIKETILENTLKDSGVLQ

B1: ScTpk2, PKA catalytic subunit of S. cerevisiae (two-hybrid fusion) (enzyme, UniProt P06245 1-380)
chain: MEFVAERAQPVGQTIQQQNVNTYGQGVLQPHHDLQQRQQQQQQRQHQQLLTSQLPQKSLVSKGKYTLHDFQIMRTLGTGSFGRVHLVRSVHNGRYYAIKVLKKQQVVKMKQVEHTNDERRMLKLVEHPFLIRMWGTFQDARNIFMVMDYIEGGELFSLLRKSQRFPNPVAKFYAAEVILALEYLHAHNIIYRDLKPENILLDRNGHIKITDFGFAKEVQTVTWTLCGTPDYIAPEVITTKPYNKSVDWWSLGVLIYEMLAGYTPFYDTTPMKTYEKILQGKVVYPPYFHPDVVDLLSKLITADLTRRIGNLQSGSRDIKAHPWFSEVVWERLLAKDIETPYEPPITSGIGDTSLFDQYPEEQLDYGIQGDDPYAEYFQDF
binding [1]: binds

B3: ScCyr1^(600-800), RAS-association domain of S. cerevisiae adenylate cyclase (two-hybrid fusion) (domain or fragment, UniProt P08678 600-800)
chain: SSYTNAYMEANREQDNKTPILNKTKSYTKKFTSSSVNMNSPDGAQSSGLLLQDEKDDEVECQLEHYYKDFSDLDPKRHYAIRIFNTDDTFTTLSCTPATTVEEIIPALKRKFNITAQGNFQISLKVGKLSKILRPTSKPILIERKLLLLNGYRKSDPLHIMGIEDLSFVFKFLFHPVTPSHFTPEQEQRIMRSEFVHVDLR
binding [2]: no binding

B5: ScCyr1^(1-365), N-terminal domain of S. cerevisiae adenylate cyclase (two-hybrid fusion) (domain or fragment, UniProt P08678 1-365)
chain: MSSKPDTGSEISGPQRQEEQEQQIEQSSPTEANDRSIHDEVPKVKKRHEQNSGHKSRRNSAYSYYSPRSLSMTKSRESITPNGMDDVSISNVEHPRPTEPKIKRGPYLLKKTLSSLSMTSANSTHDDNKDHGYALNSSKTHNYTSTHNHHDGHHDHHHVQFFPNRKPSLAETLFKRFSGSNSHDGNKSGKESKVANLSLSTVNPAPANRKPSKDSTLSNHLADNVPSTLRRKVSSLVRGSSVHDINNGIADKQIRPKAVAQSENTLHSSDVPNSKRSHRKSFLLGSTSSSSSRRGSNVSSMTNSDSASMATSGSHVLQHNVSNVSPTTKSKDSVNSESADHTNNKSEKVTPEYNENIPENSNSDN
binding [2]: no binding

The next lines start with the values.

binding [2]: binds
B2: ScGpr1^(679-961), ScGpa2 association domain of the GPCR Gpr1 of S. cerevisiae (two-hybrid fusion) (domain or fragment, UniProt Q12361 679-961)
chain: KEKPWNYSWAKTESKYLIEKYILKGELGEKEILKFCHSNWGKRGWYYRGKWKKRKCWKYSTNPLKRILWFVERFFKQLFELKLHFSFYDNCDDFEYWENYYSAKDSNDNKRTESDETKTNSSDRSLPSNSLELQAMLNNITAEEVEVPLFWRIIHHIPMLGGIDLDELNRLLKIRYNNDHFSLPGLKFALNQNKSHDKHQDVSTNSMVKSSFFSSNIVTNDDENSIEEDKNLRYSDASASENYLVKPTIPGTTPDPIIEAQNDNDSSDSSGIDLIAFLRNGPL

binding [2]: binds
B4: ScCyr1^(350-480), G-alpha association domain of S. cerevisiae adenylate cyclase (two-hybrid fusion) (domain or fragment, UniProt P08678 350-480)
chain: TPEYNENIPENSNSDNKREATTPTIETPISCKPSLFRLDTNLEDVTDITKTVPPTAVNSTLNSTHGTETASPKTVIMPEGPRKSVSMADLSVAAAAPNGEFTSTSNDRSQWVAPQSWDVETKRKKTKPKGR
